Consider 106 molecules from PubChem BioAssay AID1362 (SRMLSC, 2008).

The list shows a part of the results. These are further read-outs of the screen, such as a control signal, another cell line or another target. No call is given for them. Most of these compounds were active or inconclusive in the main read-out, so they are no random draw.

The nature of the assay: growth inhibition of WT strain, primary screen, mitochondrial fusion inhibitor project, WT and mutant strains, chemical genetic (AID 1362). Further: tested in S. cerevisiae. The settings on record: mitochondrial fusion phenotypic screen, at 10 µM.
Broadly, the inhibition is the change of the read-out against control, counted positive when it falls. Take `Cc1cc(N2CCN(C(=O)c3ccco3)CC2)n2nc(C)c(-c3ccccc3)c2n1`: the inhibition is 40.1%.

Take `CCOC(=O)c1cc(-c2cccs2)nc2c1c(C)nn2-c1ccccn1`: the inhibition was determined as 56.7%.

On to `CCOC(=O)c1c(NC(=O)CSc2nnc(N)s2)sc(C)c1-c1ccc(C)cc1`, for which the inhibition was 61.9%.

With `COc1ccc(NC(=O)Nc2cccc([N+](=O)[O-])c2)cc1Cl`, the inhibition came out at 12.9%.

`COc1cc(-c2nc3ccc4ccccc4c3c3c2CCC3)cc(OC)c1O`: the inhibition stood at 96.5%.

For `COC(=O)c1c(NC(=O)CN2CCC3(O)CCCCC3C2c2ccccc2OC)sc(C)c1C` (stereo unspecified), the inhibition was 10.7%.

For the molecule `O=C(CNCc1ccccc1Cl)Nc1ccccc1N1CCCCC1`, the inhibition is 15%.

Consider `COC(=O)Cn1nc(-c2ccc(C)cc2)c2ccccc2c1=O`, for which the inhibition came out at 61.5%.

With `CCn1c(=O)c(C(=O)Nc2ncccc2C)c(O)c2ccccc21`, the inhibition was 46.7%.

For the molecule `Cc1cccc(C)c1-n1cccc1/C=C1\SC(=S)N(c2cccc(C(=O)O)c2)C1=O`, the inhibition was 79.9%.

With `CC(=O)c1ccc(-n2c(C)ccc2-c2ccccc2)cc1`, the inhibition turned out to be 42.8%.

Take `CCC(CC)C(=O)c1c[nH]c(C(=O)NCCCN2CCOCC2)c1`: the inhibition was found to be 0.96%.

On to `COc1cc(C)c(NC(=S)Nc2ccc(Cl)c(Cl)c2)cc1OC`, for which the inhibition came to 66.7%.

With `O=C(COC(=O)c1ccccc1C(=O)c1ccc(Cl)c([N+](=O)[O-])c1)NC1CCCCCC1`, the inhibition is -2.04%.

On to `CCOc1ccc(NC(=S)N(CCc2c(C)[nH]c3ccc(C)cc23)Cc2ccco2)cc1`, for which the inhibition is -0.93%.

As for `COC(=O)C1=C(CSc2nc3ccccc3o2)NC(=O)NC1c1cc(C)ccc1C` (stereo unspecified), the inhibition came out at 9.04%.

Regarding `CC1=CN2C(=N)/C(=C/c3ccc([N+](=O)[O-])o3)C(=O)N=C2S1`, the inhibition was determined as 66.7%.

Take `Cc1c(N2C(=O)c3cccc4cccc(c34)C2=O)c(=O)n(-c2ccccc2)n1C`: the inhibition amounted to 6.58%.

Consider `NNC(=O)c1cccc(COc2ccc3c(c2)CCC3)c1`, for which the inhibition was 57.4%.

For `CCNC(=S)N(CCc1c(C)[nH]c2ccc(C)cc12)Cc1cccs1`, the inhibition is 23.4%.

As to `COc1ccc(CCNC(=S)Nc2ccc(C)cc2C)cc1`, the inhibition was 49.5%.

For the molecule `COC(=O)CNC(c1ccccc1)c1cc(Cl)ccc1NC(=O)c1cccc(Cl)c1` (stereo unspecified), the inhibition was 8.51%.

In the case of `Cc1ccc(-c2nnc3n2CCCCC3)cc1`, the inhibition was 69.4%.

Turning to `CCCCCCc1cc2cc(S(=O)(=O)c3ccc(Cl)cc3)c(=O)oc2cc1O`, the inhibition came to 85.1%.

In the case of `Fc1ccc(CNC(=S)NC2CCCCCC2)cc1`, the inhibition came out at 63.2%.

Turning to `COc1ccc(C(=O)N(c2ccc(OC)cc2)S(=O)(=O)c2cccs2)cc1`, the inhibition amounted to 41.3%.

In the case of `N=c1c2c(ncn1Cc1ccco1)Oc1ccc3ccccc3c1C2c1ccccc1` (stereo unspecified), the inhibition was found to be 36%.

As for `Cn1c(N=Nc2ccccc2)nc2ccccc21`, the inhibition was 77.7%.

On to `OC(COCC(F)(F)C(F)(F)C(F)(F)C(F)F)Cn1c2ccccc2c2ccccc21` (stereo unspecified), for which the inhibition was determined as 81.1%.

`Cc1cc(C(=O)CSc2nnc(-c3ccc(Cl)cc3)n2CC2CCCO2)c(C)n1C` (stereo unspecified): the inhibition is -2.38%.

As for `O=C1c2ccccc2C2=Nc3ccccc3SC(c3ccc(Cl)cc3)C12` (stereo unspecified), the inhibition stood at 47.8%.

Take `CCOc1ccccc1CNC(=O)c1ccc(Sc2ccc(Cl)cc2)c(NC(C)=O)c1`: the inhibition was found to be 13.3%.

`CNC(=S)NCCC(c1ccccc1)c1ccccc1`: the inhibition was 16.6%.

For `O=C1CC(SC(=Nc2ccccc2)Nc2ccccc2)C(=O)N1c1ccc(Cl)c(Cl)c1` (stereo unspecified), the inhibition was 23.9%.

As to `CC(Sc1ccc(Cl)cc1)C(=O)Nc1ccccc1-c1ccccc1` (stereo unspecified), the inhibition worked out at 10.3%.

As for `C[n+]1ccc(/C=C/c2ccccc2O)c2ccccc21`, the inhibition worked out at 39.9%.

With `Cc1cccc(OCCCCCn2ccnc2)c1C`, the inhibition amounted to 65%.

Turning to `Cn1c(/C=C/c2ccccc2)nc2ccccc21`, the inhibition was determined as 66.8%.

On to `Cc1nc(N2CCCCC2)c2c(C)c(C(=O)Nc3ccccc3C(F)(F)F)sc2n1`, for which the inhibition was -18.9%.

Consider `CC(=O)Nc1sc2c(c1C(c1ccc(Cl)cc1)N1CCOCC1)CCCC2` (stereo unspecified), for which the inhibition came out at 18.3%.

Regarding `CC(c1cccs1)N(Cc1ccco1)C(=O)Nc1ccc(Cl)c(Cl)c1` (stereo unspecified), the inhibition was 43.1%.

For the molecule `CCc1ccccc1NC(=O)C1C(c2ccccc2)C1(Cl)Cl` (stereo unspecified), the inhibition turned out to be 56.1%.

For the molecule `O=C(Nc1cccc(S(=O)(=O)N2CCCCC2)c1)Nc1ccc(Cl)cc1Cl`, the inhibition worked out at 66.6%.

Consider `Cc1ccc(S(=O)(=O)Nc2ccc(N=Nc3ccc(O)cc3)cc2)cc1`, for which the inhibition amounted to 15.1%.

Regarding `OCCNc1nc(SCc2ccccc2)nc2sc3c(c12)CCC3`, the inhibition is 59.7%.

For `Cc1ccc(NC(=S)Nc2ccc(C(C)C)cc2)cc1S(=O)(=O)N1CCCCCC1`, the inhibition is -14.1%.

`O=C(Nc1ccccc1)Nc1cc(Cl)cc(Cl)c1`: the inhibition came out at 78.3%.

`CCOC(=O)c1sc(NC(=O)CSc2n[nH]c(-c3ccccc3)n2)c(C#N)c1C`: the inhibition was found to be 59.3%.

Turning to `CC(NC(=O)Nc1ccc(Cl)c(Cl)c1)C(c1ccccc1)N1CCOCC1` (stereo unspecified), the inhibition stood at 43.7%.

`CCn1c2ccccc2c2cc(CN3CCN(Cc4cc(OC)ccc4O)CC3)ccc21`: the inhibition was 40.8%.

For `Oc1ccc(Cl)cc1/C=C/c1ccc2cccc(O)c2n1`, the inhibition came to 32.6%.

For the molecule `CN1CCN(C(=O)c2cnn3c(C(F)(F)F)cc(-c4ccc5c(c4)OCO5)nc23)CC1`, the inhibition came out at 96.2%.

For the molecule `C=CCn1c(C)c(C(C)=O)c(N2CCN(C(c3ccccc3)c3ccccc3)CC2)nc1=S`, the inhibition is 5.47%.

Consider `COc1cccc(OC)c1OCCCOc1ccc(C)cc1Br`, for which the inhibition came out at 32.9%.

With `CC1CCN(S(=O)(=O)c2ccc(Oc3ccc([N+](=O)[O-])cc3)cc2)CC1`, the inhibition worked out at 6.76%.

For the molecule `O=C(CCCOc1ccc(Cl)cc1Cl)N1CCCc2ccccc21`, the inhibition turned out to be 52.3%.

Turning to `COc1ccccc1C(=O)NC(=S)/C=C1/N(C)c2ccccc2C1(C)C`, the inhibition was determined as 14.6%.

As for `Cc1cc(NC(=O)COC(=O)C(Nc2ccc(C(F)(F)F)cc2Cl)C(C)C)no1` (stereo unspecified), the inhibition stood at 27.5%.

With `CCn1c2ccccc2c2cc(/C=N/NC(=O)c3cccc(C)c3)ccc21`, the inhibition stood at 6.29%.

On to `COc1ccc(OCC(=O)NNc2c3ccccc3nc3ccccc23)cc1`, for which the inhibition is 35.4%.

Take `Cc1cccc(NS(=O)(=O)c2ccc(C3CCCCC3)cc2)c1`: the inhibition was 24.4%.

As to `Cc1cccc2c(C(=O)N3CCN(C(=O)c4ccco4)CC3)cc(-c3cccc(Br)c3)nc12`, the inhibition is 44.4%.

As to `Cc1cccc(NC(=S)NCCC(c2ccccc2)c2ccccc2)c1`, the inhibition was 40.9%.

With `Cn1nc(C(F)(F)F)c2cc(NC(=O)OCc3ccc(F)cc3)sc21`, the inhibition came to 36.6%.

For the molecule `CC(C)CN(C(=O)c1nn(C)c(=O)c2ccccc12)c1nc2ccccc2s1`, the inhibition was -7.1%.

For the molecule `CCCCCc1nc2sc3c(c2c(=O)n1NC(=O)c1ccc([N+](=O)[O-])cc1)CC(C)(C)OC3`, the inhibition was 22.3%.

Take `COC(=O)c1cn(C(=O)OC)c2ccccc12`: the inhibition worked out at 3.95%.

With `Cc1sc(-n2c(C)cc(/C=C3\SC(=S)NC3=O)c2C)c(C#N)c1C`, the inhibition stood at 50.6%.

On to `Cc1cc(N2CCN(c3nc(-c4ccccc4)cs3)CC2)c2ccccc2n1`, for which the inhibition stood at 64.9%.

Take `COc1ccc(-c2csc(-c3ccccc3)n2)c(OC)c1`: the inhibition came to 70%.

As for `CCNC(=S)NNC(=O)c1cc(-c2ccc(OCC)cc2)nc2ccccc12`, the inhibition is 62.1%.

`CCc1cc(-c2n[nH]c(=S)n2-c2ccccc2C)cs1`: the inhibition turned out to be 10.2%.

Take `CCOC(=O)c1cnc(SC)nc1Sc1cc(Cl)ccc1Cl`: the inhibition was -3.05%.

For `CN(C)C(=S)Nc1nc2ccccc2s1`, the inhibition worked out at 66.8%.

Turning to `CC[n+]1c(C=C2C=C(C)OC(C)=C2)sc2ccccc21`, the inhibition was found to be 62.6%.

Take `COC(=O)c1sccc1NC(=S)N1CCN(c2cccc(C)c2C)CC1`: the inhibition stood at 41.4%.

As for `Cc1ccc(C(C(=O)NCC2CCCO2)N(Cc2ccccc2)C(=O)c2ccc(-c3ccccc3)[nH]2)o1` (stereo unspecified), the inhibition is -0.51%.

With `O/C(=C\c1nc2ccccc2nc1/C=C(\O)c1ccccc1)c1ccccc1`, the inhibition was 30.7%.

For the molecule `CC1CC(C)(C)N2C(=O)C3(Nc4ccccc4S3)c3cccc1c32` (stereo unspecified), the inhibition was 11.5%.

As for `Oc1ccc(-c2nc3c4c(ncn3n2)-c2ccccc2CC42CCCC2)cc1`, the inhibition amounted to 89.4%.

With `COc1ccc(NS(=O)(=O)c2ccc3oc(Nc4ccc5c(c4)OCCO5)nc3c2)cc1`, the inhibition amounted to 19.6%.

Take `CC(Nc1ccc(Br)cn1)c1cc(Cl)ccc1O` (stereo unspecified): the inhibition was determined as 54.5%.

Turning to `CC1=CC(C)(C)N(S(=O)(=O)c2ccc(C)cc2)c2cc(C)ccc21`, the inhibition was 20.9%.

In the case of `COc1c(C(=O)Nc2ccc(Cc3ccncc3)cc2)ccc2ccccc12`, the inhibition was found to be 28.5%.

With `CCOc1ccc(-n2c(SCC(=O)Nc3cc(C)on3)nnc2-c2c[nH]c3ccccc23)cc1`, the inhibition was 5.63%.

Regarding `Clc1ccc(N=c2ssnc2Cl)nc1`, the inhibition amounted to 66.8%.

Turning to `CC1=CN2C(=N)/C(=C/c3ccc(Sc4ccc(C)cc4)o3)C(=O)N=C2S1`, the inhibition is -3.95%.

In the case of `CC(C)=CCc1c(O)c(CC=C(C)C)c2c(c1O)C(=O)CC(c1ccc(O)cc1)O2` (stereo unspecified), the inhibition came to 18.9%.

As for `COc1ccc(-c2noc(CSc3nnc(Cc4ccccc4)n3-c3ccc(Cl)cc3)n2)cc1`, the inhibition was 8.85%.

On to `C/C(CCN1CCc2nc(-c3ccccc3)c(-c3ccccc3)cc2C1)=N\OC[C@@H](C)[C@H](OCc1ccccc1)C(C)C`, for which the inhibition worked out at 5.32%.

With `CCOC(=O)C1(CCOc2ccccc2)CCN(Cc2ccc3nonc3c2)CC1`, the inhibition amounted to 37.1%.

`COc1ccc(-c2nnc(NC(=O)c3ccccc3C)o2)cc1`: the inhibition came out at 45.1%.

For the molecule `Cc1c(C#N)c(N=CN(C)C)c(C(=O)c2ccc(Br)cc2)n1-c1ccc(Cl)cc1`, the inhibition was found to be 36.3%.

As to `Cc1cc(OCCCn2ccnc2)cc(C)c1Cl`, the inhibition was 59.6%.

Regarding `Cc1ccc(NNC(=O)C(O)(c2cccc(C(F)(F)F)c2)c2cccc(C(F)(F)F)c2)cc1`, the inhibition turned out to be 11.3%.

For the molecule `Cc1cccc(C)c1OCC(O)Cn1c2ccccc2c2ccccc21` (stereo unspecified), the inhibition came to 45.7%.

Regarding `Cc1ccc(NCc2nc3ccccc3n2CCOc2ccccc2)cc1`, the inhibition was 34.1%.

For `CN(C(=O)/C(N=Nc1cccc(C(F)(F)F)c1)=C(\O)C(F)(F)F)c1ccccc1`, the inhibition is 41.4%.

As to `O=C(Nc1ccc(Cl)cc1)N1CCN(c2ccc3nnc(-c4ccc(F)cc4)n3n2)CC1`, the inhibition is -3.09%.

Consider `Cc1ccsc1/C=N/NC(=S)NCCc1ccccc1`, for which the inhibition came to 65.9%.

Take `Cc1ccccc1NC(=S)N(Cc1cccs1)C1CCCCC1`: the inhibition was 42.8%.

For the molecule `CCN(CC)CCOC(=O)c1ccc(NC(=O)c2cn(-c3ccccc3)nc2-c2cccs2)cc1`, the inhibition was found to be 88.8%.

`S=c1[nH]nc(CSCc2ccccc2Cl)n1C1CCCCC1`: the inhibition is 44.5%.

Consider `CC(=O)Nc1ccc(C(=O)OCC(=O)Nc2ccccc2Sc2ccccc2)cc1`, for which the inhibition is 42.6%.

With `CC(C)(C)C(=O)Nc1ccnc(-c2cccnc2)n1`, the inhibition was found to be 34.9%.

For the molecule `CCCCNC(=S)N/N=C/C1=CCC2CC1C2(C)C` (stereo unspecified), the inhibition was 54.9%.
